Measurements as given in the supplement of paper PMC4967469.
The IC50 comes from the fitted curve, where viability falls to half of the control; a fit beyond the top or the lowest dose is shown as a bound at that dose. AUC, from the same fit, is the share of area under the viability curve across the 256-fold dose range; the more sensitive the line, the further below 1. For some assays here: An inferred top dose was derived from the fitted curves, not read from the paper.

Experiments:
Assay in all cases: Viability of human cancer cell lines after 72 h of drug (GDSC screen)
Gefitinib = compound: COc1cc2ncnc(Nc3ccc(F)c(Cl)c3)c2cc1OCCCN1CCOCC1 [Gefitinib]; conditions: top dose 0.5 µM
Protocol: (§1)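 Human cancer cell lines in 384-well plates, medium with 10% serum, drug for 72 h over a 256-fold dose range (nine 2-fold or five 4-fold steps up to the top dose). Adherent lines were fixed and stained with the nucleic acid dye Syto60, suspension lines read with resazurin; signal relative to control wells, capped at 0 and 100%. One two-parameter sigmoid per drug and line, fitted in a mixed model over all curves with the slope shared within a line.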

AG-014699 = compound: CNCc1ccc(-c2[nH]c3cc(F)cc4c3c2CCNC4=O)cc1 [AG-014699]; conditions: top dose 5 µM; top dose inferred
Protocol: as §1

NU-7441 = compound: O=c1cc(N2CCOCC2)oc2c(-c3cccc4c3sc3ccccc34)cccc12 [NU-7441]; conditions: top dose 2 µM; top dose inferred
Protocol: as §1

EHT 1864 = compound: O=c1cc(CN2CCOCC2)occ1OCCCCCSc1ccnc2cc(C(F)(F)F)ccc12 [EHT 1864]; conditions: top dose 10 µM; top dose inferred
Protocol: as §1

XL-184 = compound: COc1cc2nccc(Oc3ccc(NC(=O)C4(C(=O)Nc5ccc(F)cc5)CC4)cc3)c2cc1OC [XL-184]; conditions: top dose 5.12 µM; top dose inferred
Protocol: as §1

QL-XI-92 = compound: C=CC(=O)Nc1cc(NC(=O)c2ccc(C)c(NC(=O)c3ccno3)c2)cc(C(F)(F)F)c1 [QL-XI-92]; conditions: top dose 10.24 µM; top dose inferred
Protocol: as §1

Phenformin = compound: N=C(N)NC(=N)NCCc1ccccc1 [Phenformin]; conditions: top dose 4000 µM; top dose inferred
Protocol: as §1

WHI-P97 = compound: COc1cc2ncnc(Nc3cc(Br)c(O)c(Br)c3)c2cc1OC [WHI-P97]; conditions: top dose 10.24 µM; top dose inferred
Protocol: as §1

Cell Line	AUC (Gefitinib)	IC50 (Gefitinib)	AUC (AG-014699)	IC50 (AG-014699)	AUC (NU-7441)	IC50 (NU-7441)	AUC (EHT 1864)	IC50 (EHT 1864)	AUC (XL-184)	IC50 (XL-184)	AUC (QL-XI-92)	IC50 (QL-XI-92)	AUC (Phenformin)	IC50 (Phenformin)	AUC (WHI-P97)	IC50 (WHI-P97)
BALL-1 (B-cell leukaemia, suspension)	0.988	> 0.5 µM	0.997	> 5 µM	0.995	> 2 µM	0.971	> 10 µM								
BT-549 (breast, adherent)	0.979	> 0.5 µM	0.951	> 5 µM	0.971	> 2 µM	0.924	> 10 µM								
CADO-ES1 (Ewing sarcoma, suspension)	0.967	> 0.5 µM	0.979	> 5 µM	0.976	> 2 µM	0.876	> 10 µM	0.919	> 5.12 µM	0.905	> 10.2 µM	0.986	> 4000 µM	0.952	> 10.2 µM
CL-34 (large intestine, adherent)	0.987	> 0.5 µM	0.987	> 5 µM	0.986	> 2 µM	0.978	> 10 µM								
CL-40 (large intestine, adherent)	0.975	> 0.5 µM	0.967	> 5 µM	0.974	> 2 µM	0.939	> 10 µM								
CML-T1 (chronic myeloid leukaemia, suspension)	0.987	> 0.5 µM	0.985	> 5 µM	0.981	> 2 µM	0.975	> 10 µM								
COR-L321 (lung, suspension)	0.978	> 0.5 µM	0.982	> 5 µM	0.987	> 2 µM	0.924	> 10 µM	0.971	> 5.12 µM	0.854	8.02 µM	0.898	> 4000 µM	0.969	> 10.2 µM
CRO-AP2 (B-cell lymphoma, suspension)	0.99	> 0.5 µM	0.965	> 5 µM	0.932	> 2 µM	0.956	> 10 µM								
D-423MG (glioma, adherent)	0.97	> 0.5 µM	0.973	> 5 µM	0.832		0.858	> 10 µM	0.888	> 5.12 µM	0.863	> 10.2 µM	0.733	1360 µM	0.959	> 10.2 µM
DIFI (large intestine, adherent)	0.532	0.0383 µM	0.987	> 5 µM	0.986	> 2 µM	0.971	> 10 µM								
EMC-BAC-1 (lung adenocarcinoma, adherent)	0.796	0.271 µM	0.979	> 5 µM	0.942	> 2 µM			0.911	> 5.12 µM	0.886	> 10.2 µM	0.973	> 4000 µM	0.757	3.97 µM
ESO51 (oesophagus, semi-adherent)	0.918	> 0.5 µM			0.936	> 2 µM	0.972	> 10 µM	0.313	0.0764 µM	0.955	> 10.2 µM	0.976	> 4000 µM	0.97	> 10.2 µM
EW-22 (Ewing sarcoma, adherent)	0.985	> 0.5 µM	0.879	4.75 µM	0.959	> 2 µM	0.891	> 10 µM								
HCC-366 (non-small cell lung carcinoma, adherent)	0.968	> 0.5 µM	0.988	> 5 µM	0.97	> 2 µM	0.977	> 10 µM								
JEKO-1 (B-cell lymphoma, suspension)	0.97	> 0.5 µM	0.978	> 5 µM	0.751	0.634 µM	0.934	> 10 µM								
JHOS-4 (ovary, adherent)	0.969	> 0.5 µM	0.979	> 5 µM	0.976	> 2 µM	0.948	> 10 µM								
Jurkat (T-cell leukaemia, suspension)	0.991	> 0.5 µM	0.993	> 5 µM	0.993	> 2 µM	0.891	7.97 µM								
KARPAS-1106P (B-cell lymphoma, suspension)	0.993	> 0.5 µM	0.965	> 5 µM	0.939	> 2 µM	0.993	> 10 µM								
KATOIII (stomach, semi-adherent)	0.981	> 0.5 µM	0.936	> 5 µM	0.972	> 2 µM	0.984	> 10 µM								
KNS-62 (lung squamous cell carcinoma, adherent)	0.927	> 0.5 µM	0.963	> 5 µM	0.932	> 2 µM	0.96	> 10 µM								
MEL-HO (melanoma, adherent)	0.977	> 0.5 µM	0.986	> 5 µM	0.908	> 2 µM	0.986	> 10 µM								
MHH-CALL-2 (B-cell leukaemia, suspension)	0.986	> 0.5 µM	0.995	> 5 µM	0.988	> 2 µM	0.979	> 10 µM								
MKN7 (stomach, adherent)	0.935	> 0.5 µM	0.936	> 5 µM	0.946	> 2 µM	0.971	> 10 µM								
MM1S (myeloma, suspension)	0.973	> 0.5 µM	0.988	> 5 µM	0.948	> 2 µM	0.885	> 10 µM								
